According to the RNAGym collection of RNA variant scans (doi:10.7554/elife.90254):
The source gives no read counts; variants with many changes may rest on few reads.

B1: LINE1-mini (parent)
chain: GGCAGAGCUCAACACAGCGUGGCAAAGUGGCUGUGGCUAGACUGCC

Variants of: B1
Assay: self-cleavage, relative activity (ratio to wild type); higher = more cleavage; in vitro, sequencing; the parent is a self-cleaving ribozyme

Variant | self-cleavage
C13U A14G C23U A25C | 0.09
C13G G21U G22A G36A U38C C45U | 0.32
C13U G21A A26C | 0.69
C13G G17A G21U | 0.04
C13U C15G U28G C45A | 0.01
A14G A25G G27C | 0.05
C13G G17U G21C | 0.07
A14C G22A G27A G33A | 0.06
C13U C15U U38G G40U | 0.01
A14G A16U G27C C37G G44C | 0
A14C A16U C46A | 0.02
A14C G19A U20G G21U C46G | 0.03
A14C G29U G44U | 0.03
A14C C37U U38C U43A | 0.02
A14C G21C A24C | 0.01
A14C G21C A24U | 0.06
A14C C15U U28A G30U | 0.06
A14C U28A A39G | 0.03
C13U C18G G21C C37G | 0.01
C13G G19C G29A | 0.26
A14C G22U G27A G36A G44C C45A | 0.01

Variant | self-cleavage
C13G A25G U32A | 0.23
A14C C15U G22C C37U | 0.03
A14C G29A G44U | 0.12
A14C G19C G21U G33C C42G | 0.02
A14G C18G G22C | 0.35
C13A U20C C31A G33U | 0.06
A14G A39C G44A | 0.01
C13U G30C C42U | 0.06
C13U A14G C37G | 0
C13U G19A G35C | 0.11
A14C G36U A39G C46A | 0
C13U C18U C46A | 0.07
A14G A39C C45U | 0.04
C13G A39G U43C | 0.02
A14G A16C G19U C23A C45G | 0.16
C13U C37U U38C A41G | 0.13
C13G G17A A25G G29U | 0
C13U G29U C37U | 0.23
A14C G17C U20C U32C | 0.05
C13U G29U C37G G44U | 0.09
C13G A14U C23G G35U C45A | 0.09

Variant | self-cleavage
C13U U20A C23U A24U C37U C42U | 0.15
C13U A41G C42A | 0.07
A14G A26C C31A | 0.06
C13U C18U C23A G44A | 0.03
C13G U20A G35U | 0.05
A14G C15U G35C A39C G40U | 0
C13U C15G C23U C46G | 0.01
C13U G17C G21A | 0.04
C13U A14C C23A A25G | 0.03
C13U A14C C18G C46U | 0.03
A14C G19C U28G U32C A39U C46U | 0.04
C13U G29A G36U | 0.31
A14C G29U U43A | 0.13
C13G A39U C42U | 0.06
C13G G29A C42G | 0.02
A14C A26U G36U | 0.03
A14C A16U A24U | 0.04
A14C C18G C31A C42U | 0.08
A14C G22U U38G A41G G44A C46A | 0
A14C G17U A41U G44A C46U | 0.03
C13U G30C C31A | 0.09

Variant | self-cleavage
A14C G17U A24U G36U | 0.04
C13U A14G G40A | 0.07
C13U A24C G29U U38A | 0.05
A14C C18G U20G A24C G40C | 0.01
A14C G19A G21A C23U G40U | 0.18
C13G A14U U38A | 0.03
A14C G19A G33C | 0.02
C13G A14C A39G | 0.06
C13U G17U C23U G30C U38C A39G | 0.16
C13U A16U G29U U34G | 0.02
C13U U34G G35C | 0
A14C U28G G30C | 0.02
C13U A26U C31U | 0.09
A14C U38C C46G | 0.04
C13G G21U C37A | 0.1
C13U U38G A39U | 0.04
A14C A26G U38G | 0
A14C C15G U38G | 0
C13G C15A A25U | 0.03
C13U G17A G22A C31U G35U | 0.04
